# Test results: publication PMC9911399, “Two distinct binding modes provide the RNA-binding protein RbFox with extraordinary sequence specificity”
# Positions count from the first letter of the chain named. Some of the results follow.
# B1: GUCUAAU (DNA:RNA)
# RNA: GGGAGACCGGAAUUCAGAUUGUCCGUCUAAUUUAAAUCCCGUCGUAGCCACCA
# DNA 1: CAATCTGAATTCCGGTCTCCC
# DNA 2: TGGTGGCTACGACGGGATT
# B2: CCUCAAA (DNA:RNA)
# RNA: B1 RNA with G25C, U26C, C27U, U28C, U31A
# DNA 1: CAATCTGAATTCCGGTCTCCC
# DNA 2: TGGTGGCTACGACGGGATT
# B3: AGCUUCA (DNA:RNA)
# RNA: B1 RNA with G25A, U26G, A29U, A30C, U31A
# DNA 1: CAATCTGAATTCCGGTCTCCC
# DNA 2: TGGTGGCTACGACGGGATT
# B4: CAGGGCU (DNA:RNA)
# RNA: B1 RNA with G25C, U26A, C27G, U28G, A29G, A30C
# DNA 1: CAATCTGAATTCCGGTCTCCC
# DNA 2: TGGTGGCTACGACGGGATT
# B5: UCGGUAU (DNA:RNA)
# RNA: B1 RNA with G25U, U26C, C27G, U28G, A29U
# DNA 1: CAATCTGAATTCCGGTCTCCC
# DNA 2: TGGTGGCTACGACGGGATT
# B6: UCGGAAU (DNA:RNA)
# RNA: B1 RNA with G25U, U26C, C27G, U28G
# DNA 1: CAATCTGAATTCCGGTCTCCC
# DNA 2: TGGTGGCTACGACGGGATT
# B7: GUACAAA (DNA:RNA)
# RNA: B1 RNA with C27A, U28C, U31A
# DNA 1: CAATCTGAATTCCGGTCTCCC
# DNA 2: TGGTGGCTACGACGGGATT
# B8: UAAUCAA (DNA:RNA)
# RNA: B1 RNA with G25U, U26A, C27A, A29C, U31A
# DNA 1: CAATCTGAATTCCGGTCTCCC
# DNA 2: TGGTGGCTACGACGGGATT
# B9: GUCAUCA (DNA:RNA)
# RNA: B1 RNA with U28A, A29U, A30C, U31A
# DNA 1: CAATCTGAATTCCGGTCTCCC
# DNA 2: TGGTGGCTACGACGGGATT
# B10: ACGCAGU (DNA:RNA)
# RNA: B1 RNA with G25A, U26C, C27G, U28C, A30G
# DNA 1: CAATCTGAATTCCGGTCTCCC
# DNA 2: TGGTGGCTACGACGGGATT
# B11: GAGUGUC (DNA:RNA)
# RNA: B1 RNA with U26A, C27G, A29G, A30U, U31C
# DNA 1: CAATCTGAATTCCGGTCTCCC
# DNA 2: TGGTGGCTACGACGGGATT
# B12: CGUCUGA (DNA:RNA)
# RNA: GGGAGACCGGAAUUCAGAUUGUCCCGUCUGAUUAAAUCCCGUCGUAGCCACCA
# DNA 1: CAATCTGAATTCCGGTCTCCC
# DNA 2: TGGTGGCTACGACGGGATT
# B13: UCUCGGU (DNA:RNA)
# RNA: B12 RNA with C25U, G26C, U29G, A31U
# DNA 1: CAATCTGAATTCCGGTCTCCC
# DNA 2: TGGTGGCTACGACGGGATT
# B14: GGCCGAC (DNA:RNA)
# RNA: B1 RNA with U26G, U28C, A29G, U31C
# DNA 1: CAATCTGAATTCCGGTCTCCC
# DNA 2: TGGTGGCTACGACGGGATT
# B15: UGAUCGC (DNA:RNA)
# RNA: B12 RNA with C25U, U27A, C28U, U29C, A31C
# DNA 1: CAATCTGAATTCCGGTCTCCC
# DNA 2: TGGTGGCTACGACGGGATT
# B16: GGUUGGG (DNA:RNA)
# RNA: B12 RNA with C25G, C28U, U29G, A31G
# DNA 1: CAATCTGAATTCCGGTCTCCC
# DNA 2: TGGTGGCTACGACGGGATT
# B17: UACCCGA (DNA:RNA)
# RNA: B12 RNA with C25U, G26A, U27C, U29C
# DNA 1: CAATCTGAATTCCGGTCTCCC
# DNA 2: TGGTGGCTACGACGGGATT
# B18: UAACUUG (DNA:RNA)
# RNA: B12 RNA with C25U, G26A, U27A, G30U, A31G
# DNA 1: CAATCTGAATTCCGGTCTCCC
# DNA 2: TGGTGGCTACGACGGGATT
# B19: GAGCCUU (DNA:RNA)
# RNA: B1 RNA with U26A, C27G, U28C, A29C, A30U
# DNA 1: CAATCTGAATTCCGGTCTCCC
# DNA 2: TGGTGGCTACGACGGGATT
# B20: UGGCCUA (DNA:RNA)
# RNA: B12 RNA with C25U, U27G, U29C, G30U
# DNA 1: CAATCTGAATTCCGGTCTCCC
# DNA 2: TGGTGGCTACGACGGGATT
# B21: UGCAGCC (DNA:RNA)
# RNA: B12 RNA with C25U, U27C, C28A, U29G, G30C, A31C
# DNA 1: CAATCTGAATTCCGGTCTCCC
# DNA 2: TGGTGGCTACGACGGGATT
# B22: UGGCUCU (DNA:RNA)
# RNA: B12 RNA with C25U, U27G, G30C, A31U
# DNA 1: CAATCTGAATTCCGGTCTCCC
# DNA 2: TGGTGGCTACGACGGGATT
# B23: AACGUUU (DNA:RNA)
# RNA: B1 RNA with G25A, U26A, U28G, A29U, A30U
# DNA 1: CAATCTGAATTCCGGTCTCCC
# DNA 2: TGGTGGCTACGACGGGATT
# B24: AUGGAAG (DNA:RNA)
# RNA: B1 RNA with G25A, C27G, U28G, U31G
# DNA 1: CAATCTGAATTCCGGTCTCCC
# DNA 2: TGGTGGCTACGACGGGATT
# B25: UAUAGCG (DNA:RNA)
# RNA: B12 RNA with C25U, G26A, C28A, U29G, G30C, A31G
# DNA 1: CAATCTGAATTCCGGTCTCCC
# DNA 2: TGGTGGCTACGACGGGATT
# B26: GAUGAAC (DNA:RNA)
# RNA: B1 RNA with U26A, C27U, U28G, U31C
# DNA 1: CAATCTGAATTCCGGTCTCCC
# DNA 2: TGGTGGCTACGACGGGATT
# B27: AACGAUC (DNA:RNA)
# RNA: B1 RNA with G25A, U26A, U28G, A30U, U31C
# DNA 1: CAATCTGAATTCCGGTCTCCC
# DNA 2: TGGTGGCTACGACGGGATT
# B28: AACUUAU (DNA:RNA)
# RNA: B1 RNA with G25A, U26A, A29U
# DNA 1: CAATCTGAATTCCGGTCTCCC
# DNA 2: TGGTGGCTACGACGGGATT
# B29: UGCCAGC (DNA:RNA)
# RNA: B12 RNA with C25U, U27C, U29A, A31C
# DNA 1: CAATCTGAATTCCGGTCTCCC
# DNA 2: TGGTGGCTACGACGGGATT
# B30: AAAGCCU (DNA:RNA)
# RNA: B1 RNA with G25A, U26A, C27A, U28G, A29C, A30C
# DNA 1: CAATCTGAATTCCGGTCTCCC
# DNA 2: TGGTGGCTACGACGGGATT
# B31: GGCAUGC (DNA:RNA)
# RNA: B12 RNA with C25G, U27C, C28A, A31C
# DNA 1: CAATCTGAATTCCGGTCTCCC
# DNA 2: TGGTGGCTACGACGGGATT
# Molecular target: T1, RBFOX1 RRM (Homo sapiens, UniProt Q9NWB1 109-208)
# T1 sequence: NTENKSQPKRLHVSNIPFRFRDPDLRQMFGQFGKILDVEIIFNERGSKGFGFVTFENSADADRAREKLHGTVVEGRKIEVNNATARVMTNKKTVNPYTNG
# Assay: EMSA; HiTS-Eq, 1 nM pool, 10 min; buffer printed only for the single-RNA assays: 10 mM Tris pH 7.5, 150 mM NaCl, 3.4 mM EDTA, 0.001% NP-40, 30 C
# Settings: tags: His6 N-terminal (pET28a); label: 5' 32P
# Outline: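 Relative association constants, normalised to the cognate motif, were derived by comparing read counts of each RNA species with those of the control reaction. The RNA sequenced was the free fraction, separated by 8% native PAGE after a 10 min equilibration in 50 µL of 1 nM 5′-radiolabelled RNA (7 randomized nucleotides) with increasing concentrations of purified wild-type or mutant RbFox RRM.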
row,Binder,binding signal
1,B1,0.00651 KA relative to UGCAUGU
2,B2,0.00359 KA relative to UGCAUGU
3,B3,0.00577 KA relative to UGCAUGU
4,B4,0.0175 KA relative to UGCAUGU
5,B5,0.0134 KA relative to UGCAUGU
6,B6,0.0096 KA relative to UGCAUGU
7,B7,0.00434 KA relative to UGCAUGU
8,B8,0.00134 KA relative to UGCAUGU
9,B9,0.0041 KA relative to UGCAUGU
10,B10,0.00515 KA relative to UGCAUGU
11,B11,0.0195 KA relative to UGCAUGU
12,B12,0.0169 KA relative to UGCAUGU
13,B13,0.013 KA relative to UGCAUGU
14,B14,0.0189 KA relative to UGCAUGU
15,B15,0.025 KA relative to UGCAUGU
16,B16,0.0108 KA relative to UGCAUGU

row,Binder,binding signal
1,B17,0.00537 KA relative to UGCAUGU
2,B18,0.0139 KA relative to UGCAUGU
3,B19,0.0118 KA relative to UGCAUGU
4,B20,0.0142 KA relative to UGCAUGU
5,B21,0.0108 KA relative to UGCAUGU
6,B22,0.0197 KA relative to UGCAUGU
7,B23,0.00505 KA relative to UGCAUGU
8,B24,0.00901 KA relative to UGCAUGU
9,B25,0.0121 KA relative to UGCAUGU
10,B26,0.0116 KA relative to UGCAUGU
11,B27,0.0036 KA relative to UGCAUGU
12,B28,0.00219 KA relative to UGCAUGU
13,B29,0.0168 KA relative to UGCAUGU
14,B30,0.00419 KA relative to UGCAUGU
15,B31,0.627 KA relative to UGCAUGU
